In publication PMC10668032:
This is one part of the list. At the low end of the ranking, values are background and their order means little.

biological target: SIX1-Q177R homeodomain (UniProt Q15475); assay: universal protein binding microarray; conditions: Universal all-10-mer PBM (8x60K, AMADID 030236), 300 nM GST-tagged protein, Alexa Fluor 488 anti-GST; buffer, salt, pH and temperature not stated; high values mean tight binding; most listed sequences are background and not binding sites; double strand, one strand shown

Sequence	binding signal
GAGACGCA	0.0458 E-score
GGGCGATA	0.125 E-score
TGCGAGCA	-0.159 E-score
AAGGTTTA	-0.0242 E-score
CTCCGGAC	0.103 E-score
GTTGTAGA	-0.0294 E-score
ACTGGGAC	-0.0503 E-score
AGAGTGCT	0.118 E-score
ATTGGGTG	0.261 E-score
AACAACTG	-0.225 E-score
GTAGTTTA	0.0269 E-score
CCCAAGGG	0.0437 E-score
ATGTGCTC	-0.134 E-score
ATTCCCTA	-0.0709 E-score
GTTGACCA	-0.0854 E-score
CTAGTGCC	-0.212 E-score
CTTAAAGA	-0.117 E-score
AAGACACG	0.35 E-score
AGGCTCTA	-0.341 E-score
AAACGCCG	0.02 E-score
GTCGACCA	0.00099 E-score
ACGTTCCT	-0.029 E-score
CGCAAATC	-0.0955 E-score
AGTGTATA	0.359 E-score
ATACAGTC	-0.286 E-score

Sequence	binding signal
CGGACCTA	-0.0186 E-score
GGCAGTAA	-0.143 E-score
GCGGTAAC	-0.00086 E-score
ATTTCCTC	-0.144 E-score
CCGGTCAA	0.2 E-score
GGCGACAC	0.44 E-score
CAACATAA	-0.112 E-score
ACGACTCA	0.028 E-score
ATTTGGAG	0.0741 E-score
CAGTACCC	0.135 E-score
AAGCCAGC	-0.0146 E-score
GTTAGTGA	0.162 E-score
TTACACAA	0.223 E-score
AGGTCACC	-0.12 E-score
AATATAAC	0.0351 E-score
ATGTTAAG	-0.0168 E-score
ATTACAAC	-0.226 E-score
GCCCCTGA	-0.0086 E-score
GAAGTGAA	-0.119 E-score
CGTGTTAC	0.408 E-score
CTTTAGCC	-0.156 E-score
TATCTTAA	-0.0267 E-score
AAGTTGGT	-0.0933 E-score
CGCCCACA	0.0437 E-score
ATTAATCC	0.0551 E-score

Sequence	binding signal
ATCCCGAA	0.0583 E-score
GGGCTCTA	-0.072 E-score
GCGGCACA	-0.0543 E-score
ATTCGTGA	-0.162 E-score
CAGTCCCA	-0.183 E-score
TACGCATA	0.0319 E-score
CAAAATAG	-0.223 E-score
ATTCGCTA	-0.0733 E-score
TCTGTTAA	-0.173 E-score
CCTCACCG	-0.039 E-score
ATGCGAGC	-0.0551 E-score
AGCTGCAG	-0.141 E-score
CATATGCA	0.0415 E-score
GCCGCGGC	-0.0971 E-score
AGTGATTA	-0.0388 E-score
AAGGCTAC	-0.032 E-score
CAGGTACG	0.119 E-score
ATCTAGCA	-0.0349 E-score
CGTTGGAG	-0.0454 E-score
CCGAAGCA	0.0848 E-score
CGAAAACG	-0.236 E-score
CTAACACA	0.209 E-score
AACGTCAG	-0.0853 E-score
AGGCGCAG	-0.113 E-score
CACTGTGG	0.15 E-score

Sequence	binding signal
ACCGCGAT	-0.0762 E-score
AGGGCTAG	-0.193 E-score
CTATCTAA	-0.128 E-score
ACGAGAGA	-0.0551 E-score
GCAGTTTA	-0.191 E-score
AATCGGCG	-0.17 E-score
GAGCCCTC	-0.222 E-score
CCTAAGAG	0.118 E-score
ATCTTTGG	-0.154 E-score
ACATATCG	0.0902 E-score
CCATTCAC	0.0737 E-score
CGGTTTGA	-0.106 E-score
CAATACTG	-0.0122 E-score
AGCCAAAC	-0.157 E-score
GAACTGAC	-0.129 E-score
ATATAACA	0.197 E-score
AAGTAATG	-0.076 E-score
ATCCCGCC	0.0191 E-score
AACAGTGC	0.00491 E-score
AGTCCCAC	-0.0572 E-score
AGGGGGGG	0.138 E-score
CAACCCCC	0.242 E-score
CCGCAACG	-0.276 E-score
ATAGGTAC	0.166 E-score
CTGAGACA	0.0291 E-score

Sequence	binding signal
CACAAACG	-0.0025 E-score
ACAGCGTC	0.061 E-score
AAGTAGTA	0.00649 E-score
ATTGCGCA	-0.102 E-score
GTTAGGGA	0.00751 E-score
CCATGACG	-0.0625 E-score
CAGGACTA	-0.0996 E-score
CATGACAG	-0.219 E-score
ACCGCGGG	0.241 E-score
TCCCAGCA	-0.124 E-score
CGAGGGAC	-0.0551 E-score
TCTATTCA	-0.17 E-score
CCGTATGA	0.0416 E-score
AGTGGACG	-0.0169 E-score
AAGGACGG	-0.103 E-score
ATTTGTCG	-0.235 E-score
CGAGCTGA	-0.0571 E-score
CGTCTATC	0.13 E-score
ATCCATTG	0.00378 E-score
ACCTTTCT	0.115 E-score
AGTCAACG	-0.0933 E-score
GTACGCTA	0.153 E-score
CCAAAACG	-0.119 E-score
AGCGTGGG	-0.0287 E-score
AAGGAACT	-0.265 E-score

Sequence	binding signal
CGAAATGC	-0.163 E-score
AATGCACC	0.162 E-score
ATTTTCCC	-0.221 E-score
AGATTCTG	-0.0803 E-score
CTAGGAGC	-0.125 E-score
ATAGGTAA	-0.0324 E-score
CACCGCCG	0.375 E-score
AACGCGAG	-0.0866 E-score
CAACAAGA	-0.111 E-score
CACAGCGA	0.0566 E-score
CTCCTCGA	-0.126 E-score
TAGTCATA	-0.125 E-score
TCGCACCA	0.177 E-score
CCTACAGA	0.0349 E-score
GTCCCTGA	0.0504 E-score
CCTGGTCA	0.0409 E-score
CGGTTTCA	0.0738 E-score
CAACTGCG	-0.111 E-score
CACCTCGC	0.203 E-score
CCGCCCCC	0.117 E-score
ATCGGCAA	-0.095 E-score
ACGTGCCA	-0.0195 E-score
GGATGGCC	0.0504 E-score
CCCTTGAC	0.176 E-score
TTATGGAA	-0.316 E-score

Sequence	binding signal
ACGCAGAA	-0.0908 E-score
TCGTTAGA	-0.258 E-score
ATGACGGA	-0.127 E-score
CCAAGGTA	-0.0239 E-score
ACATCTGC	-0.206 E-score
CTTTCTAC	0.136 E-score
AGCTGGAC	0.037 E-score
ATGGGAGC	-0.149 E-score
AGCCTCTA	-0.177 E-score
CCACTCGA	-0.011 E-score
CCAGTAGG	-0.0963 E-score
ACTGCCGA	0.119 E-score
AATATCAA	-0.0692 E-score
AGCTGCTG	-0.195 E-score
CAAAATGA	-0.19 E-score
GACAGATA	-0.00448 E-score
AAAGAAAC	-0.0719 E-score
CACGCATG	0.126 E-score
CCCATCCC	0.125 E-score
CTAGGGGC	-0.102 E-score
ACGTCCGG	-0.0291 E-score
AAATATTC	-0.0168 E-score
